Hit rate of the full screen: of about 310,000 compounds, about 14,000 (4.5%) showed an effect of 50% or more. Effects have a minus sign here. The list shows a part of the results.
Molecular target: human ether-à-go-go-related gene (hERG) potassium channel (human, UniProt Q12809)
Experiment: primary screen, population patch clamp on CHO cells stably expressing hERG
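Further: peak tail current of the secondary pulse compared with the same well before compound.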

human ether-à-go-go-related gene (hERG) potassium channel, sequence (Q12809 whole entry, looked up): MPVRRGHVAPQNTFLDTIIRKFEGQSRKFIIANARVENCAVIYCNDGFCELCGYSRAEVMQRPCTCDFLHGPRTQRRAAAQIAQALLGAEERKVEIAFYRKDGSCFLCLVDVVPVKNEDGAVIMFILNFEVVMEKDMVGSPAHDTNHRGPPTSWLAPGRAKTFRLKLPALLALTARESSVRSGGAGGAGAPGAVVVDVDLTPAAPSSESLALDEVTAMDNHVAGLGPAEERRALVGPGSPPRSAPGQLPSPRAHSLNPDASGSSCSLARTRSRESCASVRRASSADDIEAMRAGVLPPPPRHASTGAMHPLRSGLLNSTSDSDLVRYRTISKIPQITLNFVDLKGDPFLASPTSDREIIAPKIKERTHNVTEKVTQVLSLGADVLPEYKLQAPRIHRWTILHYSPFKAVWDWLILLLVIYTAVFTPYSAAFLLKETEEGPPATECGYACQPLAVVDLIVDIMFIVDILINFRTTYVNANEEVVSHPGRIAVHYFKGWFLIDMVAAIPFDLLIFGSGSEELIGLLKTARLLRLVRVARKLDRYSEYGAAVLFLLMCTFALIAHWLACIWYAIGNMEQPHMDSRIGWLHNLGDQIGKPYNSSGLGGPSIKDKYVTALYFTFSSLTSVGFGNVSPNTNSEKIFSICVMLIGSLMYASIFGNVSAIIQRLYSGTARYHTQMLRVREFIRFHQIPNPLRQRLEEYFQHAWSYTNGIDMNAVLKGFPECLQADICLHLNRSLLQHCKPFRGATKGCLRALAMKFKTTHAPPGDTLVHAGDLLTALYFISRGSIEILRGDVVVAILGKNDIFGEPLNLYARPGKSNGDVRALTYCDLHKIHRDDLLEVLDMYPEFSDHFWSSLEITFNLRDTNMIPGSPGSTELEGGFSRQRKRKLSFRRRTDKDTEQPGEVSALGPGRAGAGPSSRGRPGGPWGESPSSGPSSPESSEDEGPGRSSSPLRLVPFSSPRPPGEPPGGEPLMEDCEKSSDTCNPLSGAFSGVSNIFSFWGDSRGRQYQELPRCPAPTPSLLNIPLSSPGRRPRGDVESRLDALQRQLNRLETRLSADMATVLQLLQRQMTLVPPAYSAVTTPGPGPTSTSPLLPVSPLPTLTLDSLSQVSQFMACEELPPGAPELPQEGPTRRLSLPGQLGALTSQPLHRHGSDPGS

Compound	hERG current change (%, negative = inhibition) at 10uM [%]
O=C(CSc1nc2ccccc2nc1N1CCOCC1)N1CCN(c2ccccc2)CC1	-39.2
CC(C)CC(=O)NC(=S)Nc1nc(-c2ccccc2)cs1	30.8
COc1cc(NC(=O)c2ccc(Cl)cc2Cl)ccc1NC(=O)c1cccs1	5.32
COc1ccccc1-c1cc(C(=O)N2CCN(c3ccccc3)CC2)no1	1.4
Cc1cccc(CS(=O)(=O)c2ncc(Cl)c(C(=O)Nc3c(C)cccc3C)n2)c1	13
CCn1cc(C(=O)N2CCOCC2)c(=O)c2cc(S(=O)(=O)N(C)C3CCCCC3)ccc21	0.899
COc1cc(=O)n(C)c2c(OCC3OC(C)(C)OC3(C)C)cccc12 (stereo not drawn)	1.87
COc1ccc(CN(C(=O)CN2C(=O)C(C)Oc3ccccc32)C2CCCC2)c(OC)c1 (stereo not drawn)	-12.2
CC(C)Cc1nnc(NC(=O)C23CC4CC(CC(C4)C2)C3)s1	5.58
CN(C)S(=O)(=O)c1cc([N+](=O)[O-])ccc1N1CCCCCC1	-8.1
CC(C(=O)Nc1ccc2c(c1)OCO2)N1CCN(C)CC1.O=C(O)C(=O)O (stereo not drawn)	8.69
CCOC(=O)C(=CNc1ccc(C(F)(F)F)cc1Cl)C(=O)OCC	9.05
O=C(Cc1cn2ccsc2n1)Nc1nc2c(s1)CN(Cc1ccccc1)CC2	-9.59
O=C(Nc1ccc(Nc2ccccc2)cc1)c1ccccc1F	7.4
CCC1CCCCN1C(=O)CCS(=O)(=O)c1ccccc1 (stereo not drawn)	13.7
OC(COc1ccc(OCC(O)CN2CCN(Cc3ccccc3)CC2)cc1)CN1CCN(Cc2ccccc2)CC1 (stereo not drawn)	5.65
CN(C)C(=O)c1cccn1-c1ncc(C(F)(F)F)cc1Cl	9.11
O=C(O)c1nccnc1C(=O)Nc1ccc(Cl)cn1	17.6
CCCNC(=O)CCCCn1c(=S)[nH]c2c([nH]c3ccc(OC)cc32)c1=O	15.1

Compound	hERG current change (%, negative = inhibition) at 10uM [%]
O=C(O)CCSc1nnc(CNc2ccc(Cl)cc2)n1Cc1ccccc1	1.96
COc1ccc(NC(=S)NCCCCCC(=O)C[N+](=O)[O-])cc1	29.1
COc1ccc([C@@H]2[C@@H]3C(=O)N(C(C)(C)C)C(=O)[C@@H]3[C@]3(Cc4ccccc4)C(=O)N(c4ccc(Br)cc4)C(=O)N23)cc1	17.9
CC(Nc1nc2ncn(Cc3ccccc3)c2c(=O)[nH]1)C(=O)O (stereo not drawn)	16.8
COC(=O)C(Cc1c[nH]c2ccccc12)N1CCS(=O)(=O)CC1 (stereo not drawn)	28.4
CSC(=NS(=O)(=O)c1ccc(C)cc1)SC	-0.185
Cc1ccccc1OCCC(=O)OCC(=O)NC(=O)c1ccccc1	26.1
Cc1cc(-c2ccccc2)n(-c2ccccc2)n1	-2.89
O=C(CSc1ccccc1)NCC1(N2CCOCC2)CCCCC1	-19
COc1ccc(S(=O)(=O)N=Nc2c(O)[nH]c3ccccc23)cc1	25.1
O=C(CCNC(=O)c1ccc(Br)cc1)OCc1ccccc1Cl	-24.4
CN(C)N1C(N)=C(C#N)C(c2ccc3c(c2)OCO3)C2=C1CC(C)(C)CC2=O (stereo not drawn)	-0.164
Cc1cc(=O)n2c3ccccc3n(CC(O)CN3CCCC3)c2c1C#N (stereo not drawn)	-44.8
COc1ccc(O)c(/C=N/N=C/c2cccc([N+](=O)[O-])c2)c1	12.1
COC(=O)c1cccc(-n2[nH]nnc2=S)c1	3.03
N#C/C(=C\c1cc(O)c(O)c(O)c1)C(N)=O	14.5
CC(=O)NC(CC(=O)Nc1ccc(S(=O)(=O)N2CCCC2)cc1)c1ccccc1 (stereo not drawn)	17.9
COc1ccc(CNC(=O)C2CCCN(C(=O)Nc3ccccc3OC)C2)cc1 (stereo not drawn)	-1.26
Nn1c(SCc2nc3ccccn3c2Br)nnc1-c1cccnc1	-1.43

Compound	hERG current change (%, negative = inhibition) at 10uM [%]
COC(=O)Cn1c(C)c(C#N)c2ccccc21	8.07
O=C(N/N=C\c1cccs1)c1ccccc1-n1cccc1	4.66
CCOC(=O)C1=C(C)NC(C)=C(C(=O)OCC)C1C(=O)OCC(=O)N1c2ccccc2CC1C (stereo not drawn)	-28.9
O=c1c(O)cccc2cc(O)c(O)c(O)c12	9.73
CN(C)C(=O)c1cn(-c2ccccc2)nc1-c1cccc([N+](=O)[O-])c1	-35.4
Cc1ccc(C(=O)NNC(=O)Cc2csc(-c3csc(C)n3)n2)cc1	14
CC(C)(C)NC1=CC(=O)OC12CCCCC2	-1
CN1C(=O)c2ccccc2N(C)C1c1ccc2c(c1)OCO2 (stereo not drawn)	-7.04
CN1CCN(C(=O)c2ccccc2NC(=O)COc2ccccc2Cl)CC1	-20.7
CC(=O)N1CCN(C(=S)Nc2cc(S(=O)(=O)N3CCOCC3)ccc2Cl)CC1	18.4
Cc1cc(=O)oc2cc(OCCCC[n+]3ccccc3)ccc12.[Br-]	4.72
CCCN1C(=O)SC(CC(=O)Nc2ccccc2)C1=O (stereo not drawn)	3.39
Cc1ccccc1Nc1nc(N)nc(COC(=O)c2cccc(S(=O)(=O)NCc3ccccc3)c2)n1	-5.83
Cc1cccc2c(CCNC(=O)c3ccc([N+](=O)[O-])cc3)c[nH]c12	-2.68
Br.C=CCn1c(=N)n(CC(=O)c2ccccc2)c2ccccc21	-23.9
Cc1ccc(S(=O)(=O)CCC(=O)NC2CCCC2)cc1	12.4
O=C(NCCNC(=O)c1ccccc1F)c1ccccn1	18.1
COc1ccc(NC2CCCN(C(=O)c3csc(C(C)C)n3)C2)cc1OC (stereo not drawn)	4.99
COc1ccc2nc(NC(=O)CSc3nnnn3C)sc2c1	29.3

From article PMC4336329 (PLoS ONE, 2015)
